Here are results for 89 compounds from publication PMC4336329 (PLoS ONE, 2015).

Molecules are shown by their SMILES. About 2,200 (0.71%) of roughly 310,000 compounds showed an effect of 50% or more. The effect is printed as a negative number. Some of the results follow.

The assay deals with human ether-à-go-go-related gene (hERG) potassium channel (human, UniProt Q12809). Kind of assay: primary screen, population patch clamp on CHO cells stably expressing hERG.
Chain of human ether-à-go-go-related gene (hERG) potassium channel (Q12809 whole entry, looked up): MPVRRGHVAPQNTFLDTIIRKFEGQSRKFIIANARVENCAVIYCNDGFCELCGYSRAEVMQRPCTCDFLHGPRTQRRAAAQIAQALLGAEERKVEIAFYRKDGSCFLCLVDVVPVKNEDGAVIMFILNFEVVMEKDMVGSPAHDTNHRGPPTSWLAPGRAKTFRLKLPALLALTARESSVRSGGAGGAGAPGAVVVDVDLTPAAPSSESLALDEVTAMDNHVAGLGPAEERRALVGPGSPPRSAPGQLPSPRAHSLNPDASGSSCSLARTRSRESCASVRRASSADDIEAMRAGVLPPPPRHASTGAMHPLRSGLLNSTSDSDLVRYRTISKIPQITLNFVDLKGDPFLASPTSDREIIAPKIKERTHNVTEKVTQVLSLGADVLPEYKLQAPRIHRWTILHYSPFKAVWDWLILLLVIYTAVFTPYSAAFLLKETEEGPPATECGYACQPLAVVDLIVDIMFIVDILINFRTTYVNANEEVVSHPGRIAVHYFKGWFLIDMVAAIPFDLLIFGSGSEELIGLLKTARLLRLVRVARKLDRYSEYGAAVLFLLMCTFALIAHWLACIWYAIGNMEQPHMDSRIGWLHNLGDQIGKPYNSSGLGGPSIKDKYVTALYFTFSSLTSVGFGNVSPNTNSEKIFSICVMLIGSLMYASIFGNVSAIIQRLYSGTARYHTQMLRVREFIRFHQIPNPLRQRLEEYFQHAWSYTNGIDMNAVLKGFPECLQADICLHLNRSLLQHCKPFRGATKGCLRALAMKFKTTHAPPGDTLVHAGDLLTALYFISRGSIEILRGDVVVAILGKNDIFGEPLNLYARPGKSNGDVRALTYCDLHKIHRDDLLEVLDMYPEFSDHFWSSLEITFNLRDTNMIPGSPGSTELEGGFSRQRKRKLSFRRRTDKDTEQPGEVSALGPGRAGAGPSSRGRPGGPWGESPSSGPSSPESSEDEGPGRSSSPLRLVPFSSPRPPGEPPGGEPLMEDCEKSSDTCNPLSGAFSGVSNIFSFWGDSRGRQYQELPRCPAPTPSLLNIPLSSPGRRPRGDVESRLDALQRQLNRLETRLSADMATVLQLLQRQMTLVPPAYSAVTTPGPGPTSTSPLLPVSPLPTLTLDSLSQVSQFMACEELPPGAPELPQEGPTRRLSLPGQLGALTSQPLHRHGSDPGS
For `Cc1cc(C)cc(NC(=O)CCNC(=O)c2ccc([N+](=O)[O-])cc2)c1`, the “hERG current change (%, negative = inhibition) at 1uM” value was found to be 4.54%.
For the compound `Cc1ccnn2cc3c(=O)n(C)c(=O)n(C)c3c12`, the “hERG current change (%, negative = inhibition) at 1uM” value was found to be 14.4%.
On to `CCCC(=O)N(CCN1CCOCC1)c1nc2c(OC)ccc(C)c2s1.Cl`, for which the “hERG current change (%, negative = inhibition) at 1uM” value is listed as -6.69%.
For `Cc1cccc2sc(NC(=O)c3cc(S(=O)(=O)N(C)C)ccc3N3CCCC3)nc12`, the “hERG current change (%, negative = inhibition) at 1uM” value stood at 20.3%.
The figure for `O=C(COC(=O)CC1c2ccccc2CCN1S(=O)(=O)c1ccccc1)Nc1ccccc1` (centres unmarked) is 5.34%; for `Nc1ccccc1Oc1ncc(C(F)(F)F)cc1Cl` it is 20.4%.
Next, `COc1ccc(CCn2c(-n3nc(C)cc3C)nc3c2c(=O)[nH]c(=O)n3C)cc1`: 6.22%; `COc1ccc(C(CCN2CCCC2)c2c(O)cc(OC)cc2OC)cc1` (centres unmarked): -21.1%; `O=C(COc1cccc(-n2cnnn2)c1)NC1CCCCC1`: 12.3%.
The figure for `O=C(CCCN1C(=O)c2ccccc2C1=O)NCC1CCCO1` (centres unmarked) is 9.69%.
For `CCOC(=O)[C@@H]1[C@H]2COc3ccc(Br)cc3[C@@H]2N2C(=O)N(c3ccccc3)C(=O)[C@]12C`, the “hERG current change (%, negative = inhibition) at 1uM” value is given as 6.78%.
The figure for `COc1ccc(CN2C(=O)COc3ccccc32)cc1` is 13.2%; for `Cc1ccc(NC(=O)CCCc2nc3ccccc3c(=O)[nH]2)c(Cl)c1` it is 4.55%; for `O=C(NC1CC2CCCC(C1)N2C(=S)NCCc1ccccc1)C1CC1` (centres unmarked) it is 8.33%.
As for `COc1cc(NC(=O)C(Cc2ccccc2)n2cccc2)cc(OC)c1` (centres unmarked), the “hERG current change (%, negative = inhibition) at 1uM” value came out at 0.297%.
Next, `O=C(Nc1ccc(-c2nc3ccccc3[nH]2)cc1)c1ccco1`: 6.74%.
`CC1CCc2c(C(=O)NCCCN3CCOCC3)csc2C1` (centres unmarked): the “hERG current change (%, negative = inhibition) at 1uM” value came out at 3.41%.
Next, `Cn1c(=O)[nH]c(=O)c2c1nc(SCC(=O)O)n2CCCc1ccccc1`: 12.8%; `COc1ccc(NC(=O)CN(C)C(=O)/C=C/c2ccc(S(=O)(=O)N3CCCCCC3)cc2)cc1`: 20%.
The figure for `O=C(N1CCCC1)C12CCC3CC(CC(C3)C1)C2` is 12.9%; for `Cc1cc(OCCCC(=O)NNC(=O)c2ccncc2)ccc1Cl` it is 0.533%; for `CC(/C=C/c1ccco1)=N/NC(=O)C1COc2ccccc2O1` (centres unmarked) it is 11.4%.
In the case of `CC1CC(C)CN(CC(O)COC2CC(C)CC(C)(C)C2)C1.Cl` (centres unmarked), the “hERG current change (%, negative = inhibition) at 1uM” value is listed as -4.44%.
The figure for `CCCN(CCC(=O)Nc1ccccc1F)CC1CC1` is 4.67%; for `CCOc1ccc(S(=O)(=O)N2CCCCC2)cc1NC(=O)CN1C(=O)NC(C)(c2ccc(C)cc2)C1=O` (centres unmarked) it is -2%; for `CN(CC(=O)Nc1ccc(F)cc1)C(=O)COC(=O)c1cccc(N(C)C)c1` it is 3.72%.
Next, `Cc1cnc(NC(=O)COc2ccccc2Cl)s1`: 4.3%.
For `N#CCC(=O)Nc1ccc(C(=O)NNC(=O)CCN2CCN(c3ccccc3)CC2)cc1`, the “hERG current change (%, negative = inhibition) at 1uM” value is listed as -7.69%.
Next, `O=C(CSc1nc2ccccc2n1CC(=O)N1CCOCC1)N1CCCC1`: 16.9%; `CCOC(=O)c1ccccc1NC(=O)CSc1ccccc1`: -6.19%; `CCCCn1c(N)c(N(CCOC)C(=O)COC(=O)c2cc(CC)c(C)s2)c(=O)[nH]c1=O`: 17.9%.
The figure for `Cc1ccccc1N1C(=O)C2CCCN2C1=S` (centres unmarked) is 11.1%; for `COCCn1c(=S)[nH]c2cc(C(=O)NCC3CCCO3)ccc2c1=O` (centres unmarked) it is -0.861%.
Next, `Cc1ccccc1NC(=O)C1Cc2ccccc2C(=O)O1` (centres unmarked): 9.98%.
`CCCCCn1c(CN2CCN(C(=O)c3ccco3)CC2)nc2c1c(=O)n(C)c(=O)n2C`: the “hERG current change (%, negative = inhibition) at 1uM” value is -37.1%.
The figure for `COc1cccc(CNC(=O)C2CCN(C(=O)N3CC(C)Oc4ccccc43)CC2)c1` (centres unmarked) is 10.2%.
The figure for `COC(=O)CC1c2ccccc2S(=O)(=O)N1Cc1ccccc1` (centres unmarked) is 6.7%; for `CC(=O)CSc1nnc(-c2ccc(S(=O)(=O)N3CCC(C)CC3)cc2)o1` it is 5.36%.
The figure for `Cc1ccc(-c2nnn(CC(=O)N(c3cccc(O)c3)C(C(=O)NC(C)(C)C)c3cccs3)n2)o1` (centres unmarked) is 11.2%.
For the compound `NS(=O)(=O)c1ccc(N/N=C2/CCCc3ccccc32)c([N+](=O)[O-])c1`, the “hERG current change (%, negative = inhibition) at 1uM” value came out at 16.5%.
Take `CCOC(=O)Cn1c(=N)n(CCOc2ccc(F)cc2)c2ccccc21.Cl`: the “hERG current change (%, negative = inhibition) at 1uM” value is -31.8%.
`CCCOc1ccc(Br)cc1/C=N/O`: the “hERG current change (%, negative = inhibition) at 1uM” value is given as -3.89%.
With `Cn1c(=O)c(C(=O)COc2ccc(F)cc2Cl)c(N)n(Cc2ccccc2)c1=O`, the “hERG current change (%, negative = inhibition) at 1uM” value was determined as 15.8%.
As for `c1csc(CCNc2ncnc3sc4c(c23)CCC4)c1`, the “hERG current change (%, negative = inhibition) at 1uM” value came to 11.8%.
The figure for `COc1ccc(/C=N/NC(=O)c2cccnc2)cc1COc1ccc(NC(C)=O)cc1` is 19.5%; for `COc1cccc(CNC(=O)CN(c2cc(C)cc(C)c2)S(=O)(=O)c2c(C)noc2C)c1` it is 4.39%.
`Cc1cc(C(=O)Cn2nnc(-c3ccc(Cl)cc3)n2)c(C)n1-c1ccccc1`: the “hERG current change (%, negative = inhibition) at 1uM” value is 4.98%.
The figure for `Cc1ccc(S(=O)(=O)N(CC2CO2)c2cccc([N+](=O)[O-])c2)cc1` (centres unmarked) is 14.7%.
Next, `COc1ccc(CCNCC(C)c2ccccc2)cc1.O=C(O)C(=O)O` (centres unmarked): 12.4%; `CCNc1c(NS(=O)(=O)c2ccc(Br)s2)c(=O)oc2ccccc12`: -4.7%.
The figure for `CC(=O)c1c(C)[nH]c(C(=O)CN2C(=O)NC(CCc3ccccc3)C2=O)c1C` (centres unmarked) is 7.18%; for `O=[N+]([O-])c1ccc2c(c1)C(N1CCOCC1)/C(=C/COc1ccc3ccccc3c1Br)O2` (centres unmarked) it is 16.5%; for `Cc1ccc(-n2c(SCC(=O)N3CCCCC3)nc(O)c(Cc3ccccc3)c2=O)cc1` it is 14.2%.
For the compound `CCOC(=O)C1CCCN(C(=O)c2c(-c3ccccc3Cl)noc2C)C1` (centres unmarked), the “hERG current change (%, negative = inhibition) at 1uM” value is on record as 12.6%.
Next, `COCc1nnc(NC(=O)c2cccc(NC(=O)c3ccccc3)c2)s1`: -1.69%; `CCOC(=O)N/N=C1\CC(C)CC(C)(C)C1` (centres unmarked): 22.4%; `Cc1c[nH]c(=O)c([N+](=O)[O-])c1`: 10.8%.
The figure for `Cc1ccc(S(=O)(=O)N2CN(CC3CCCO3)c3nc4ccccc4nc32)cc1` (centres unmarked) is 14.2%; for `c1ccc(-c2noc(-c3cccnc3)n2)nc1` it is 2.07%.
The figure for `COCCSc1nnc(NC(=O)c2ccc3c(c2)OCO3)s1` is 11.2%; for `Cc1ccc2[nH]c(C(=O)N3CCCCC3)cc2c1` it is 11%; for `O=C(O)CC(Cc1ccccc1)(C(=O)O)c1ccccc1` (centres unmarked) it is 6.84%.
Regarding `O=C(NCCCN1CCOCC1)c1ccc2c(c1)N(Cc1ccccc1)CCS2`, the “hERG current change (%, negative = inhibition) at 1uM” value is on record as 0.208%.
`Cc1nn(-c2ccccc2)c(Cl)c1/C=N/Nc1nncc(=O)[nH]1`: the “hERG current change (%, negative = inhibition) at 1uM” value came to 16%.
The figure for `CCOC(=O)c1c(NC(=O)CN2C(=O)NC(C)(c3ccc(Cl)cc3)C2=O)sc(C(=O)NC)c1C` (centres unmarked) is 0.742%; for `Cc1cc(C)c(S(=O)(=O)Nc2nccs2)c(C)c1` it is 8.76%; for `Cc1ccc(C)c(OCC(=O)Nn2c(C)nc3ccccc3c2=O)c1` it is 11.8%.
Consider `Cc1ccnc(NS(=O)(=O)c2ccc(NC(=O)Cc3ccc(Br)cc3)cc2)n1`, for which the “hERG current change (%, negative = inhibition) at 1uM” value came out at 18.4%.
Next, `COc1cccc(CNC(=O)Cn2ccc3cc(S(=O)(=O)N4CCCC4)ccc32)c1`: 10.4%; `CCOC(=O)CCCNc1ccc([N+](=O)[O-])cc1[N+](=O)[O-]`: -4.57%.
Next, `O=C(N/N=C/c1ccco1)c1cccs1`: 7.92%; `O=S(=O)(c1ccc2ccccc2c1)n1cnc2ccccc21`: 9.03%.
For `CCOC(=O)c1c(C)[nH]c(C(=O)C(C)OC(=O)c2ccc(NC(=O)CC#N)cc2)c1C` (centres unmarked), the “hERG current change (%, negative = inhibition) at 1uM” value was 17.5%.
The figure for `COc1cc(/C=N/NC(=O)c2cccnc2)ccc1OS(=O)(=O)c1ccc(F)cc1` is -11.3%; for `CCc1ccc2nc3c(c(C(=O)O)c2c1)CCC3` it is -8.29%; for `CC(C)CC(=O)Nc1ccc(C(=O)COc2ccc(-c3nnco3)cc2)cc1` it is 11.9%.
Next, `CCCCNC(=O)c1sc(=S)n2c1[nH]c(=O)c1ccccc12`: 12%; `CN1C(C(=O)NCC2CC2)CC2Cn3c(nc4cc(Cl)c(Cl)cc43)C21` (centres unmarked): -0.922%; `CSc1nnc(Cn2c(=O)sc3ccccc32)n1-c1ccccc1`: 4.93%.
Consider `S=C(NCc1ccco1)N1CCN(c2ccc(Cl)cc2)CC1`, for which the “hERG current change (%, negative = inhibition) at 1uM” value is 14.1%.
For `CCCC(C)NC(=O)CN1C(=O)NC2(CCc3ccccc32)C1=O` (centres unmarked), the “hERG current change (%, negative = inhibition) at 1uM” value was found to be 21%.
Next, `Cc1ccc(-c2noc(CSc3nnc(CCc4ccccc4)n3-c3ccccc3)n2)cc1`: -8.03%; `CCOC(=O)C(NC(C)=O)(Nc1ccc(S(=O)(=O)Nc2nccs2)cc1)C(F)(F)F` (centres unmarked): 9.64%.
Next, `Cc1ccc(C)c(NC(=O)c2cnn(-c3ccccc3)c2C)c1`: 21.2%.
For `Cc1ccc(CNC(=O)c2cc(=O)c3ccc(C)cc3o2)cc1`, the “hERG current change (%, negative = inhibition) at 1uM” value was determined as 14%.
For `O=C(Nc1ccc2oc(=O)ccc2c1)c1cccnc1Cl`, the “hERG current change (%, negative = inhibition) at 1uM” value is on record as -2.76%.
The figure for `O=C(Nc1cccc(F)c1)c1cccnc1N1CCOCC1` is 7.09%; for `COc1ccc(-c2cc(C(=O)Nc3ccc4c(c3)OCO4)no2)cc1` it is 12.3%.
For `CCOC(=O)Cn1c(-c2ccc(OC)cc2)c(-c2ccc(OC)cc2)nnc1=O`, the “hERG current change (%, negative = inhibition) at 1uM” value is listed as 21.3%.
